# Article PMC4336329 (PLoS ONE, 2015)
# The campaign covered roughly 310,000 compounds. About 14,000 (4.5%) showed an effect of 50% or more. The effect is printed as a negative number. The list shows a part of the results.
# Target: human ether-à-go-go-related gene (hERG) potassium channel (human, UniProt Q12809)
# Test: primary screen, population patch clamp on CHO cells stably expressing hERG
# 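Note: peak tail current of the secondary pulse compared with the same well before compound.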
# Sequence of human ether-à-go-go-related gene (hERG) potassium channel (Q12809 whole entry, looked up): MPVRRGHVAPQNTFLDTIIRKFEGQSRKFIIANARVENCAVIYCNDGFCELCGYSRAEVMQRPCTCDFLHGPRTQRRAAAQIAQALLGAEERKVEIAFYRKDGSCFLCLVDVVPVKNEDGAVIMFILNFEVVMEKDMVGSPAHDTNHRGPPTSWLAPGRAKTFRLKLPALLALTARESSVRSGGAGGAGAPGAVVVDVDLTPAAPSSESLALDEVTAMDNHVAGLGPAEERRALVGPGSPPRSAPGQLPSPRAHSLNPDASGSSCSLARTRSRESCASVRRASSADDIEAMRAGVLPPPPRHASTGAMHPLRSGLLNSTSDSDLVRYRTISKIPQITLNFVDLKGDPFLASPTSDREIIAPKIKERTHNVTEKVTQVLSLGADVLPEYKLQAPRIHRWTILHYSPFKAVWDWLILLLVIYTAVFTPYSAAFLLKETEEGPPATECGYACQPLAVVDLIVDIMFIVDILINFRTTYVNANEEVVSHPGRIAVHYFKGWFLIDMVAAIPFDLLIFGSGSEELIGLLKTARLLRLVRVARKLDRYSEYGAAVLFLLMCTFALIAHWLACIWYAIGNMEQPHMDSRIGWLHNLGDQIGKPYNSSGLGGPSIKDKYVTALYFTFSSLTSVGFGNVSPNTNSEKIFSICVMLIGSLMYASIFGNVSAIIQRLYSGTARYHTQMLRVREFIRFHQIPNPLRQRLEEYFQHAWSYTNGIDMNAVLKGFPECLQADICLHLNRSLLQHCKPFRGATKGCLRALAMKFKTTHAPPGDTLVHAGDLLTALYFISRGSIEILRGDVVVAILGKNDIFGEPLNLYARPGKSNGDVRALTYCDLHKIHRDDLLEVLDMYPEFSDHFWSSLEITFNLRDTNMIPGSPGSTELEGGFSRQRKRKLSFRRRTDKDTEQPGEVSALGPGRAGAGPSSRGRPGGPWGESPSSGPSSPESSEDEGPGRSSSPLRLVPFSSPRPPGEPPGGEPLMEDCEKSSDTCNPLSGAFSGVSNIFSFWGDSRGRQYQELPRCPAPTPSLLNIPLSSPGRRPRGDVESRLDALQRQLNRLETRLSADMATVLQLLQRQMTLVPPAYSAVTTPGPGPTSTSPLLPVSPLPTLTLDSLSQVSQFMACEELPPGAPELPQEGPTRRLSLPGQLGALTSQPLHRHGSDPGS
row,Compound,"hERG current change (%, negative = inhibition) at 10uM"
1,CCOC(=O)c1sc(NC(=O)CSc2nc3c(cc2C#N)CCCCCC3)c(C#N)c1C,-3.02%
2,COc1ccc([C@H]2[C@H]3C=CC[C@@H](C)[C@@H]3C(=O)N2Cc2ccccc2)cc1Cl,8.83%
3,Cc1[nH]c(=O)[nH]c(=O)c1S(=O)(=O)Nc1ccc(Oc2ccccc2)cc1,4.18%
4,Cc1cc(C)c2cc(C(=O)Nc3ccc4c(c3)OCO4)[nH]c2c1,16.2%
5,C/C(=N\NC(=O)CCc1ccc(S(=O)(=O)N2CCOCC2)cc1)c1ccc(OC(F)F)cc1,6.63%
6,O=C(N=Nc1c(O)n(C2OC(=O)c3ccccc32)c2ccccc12)c1ccc(O)cc1 (centres unmarked),-0.695%
7,CCN(CC)S(=O)(=O)c1csc(C(=O)NC2CCCCC2)c1,-8.22%
8,O=C(CN1CCC(NC(=O)c2ccccc2)CC1)NCc1ccccc1F,-20.6%
9,Cc1csc(SCC(=O)Nc2cc(S(=O)(=O)N3CCOCC3)ccc2N2CCOCC2)n1,-45.8%
10,Cc1nc2ncnn2c(C)c1CCC(=O)Nc1csc(N)n1,-27.9%
11,CCOc1ccc(-n2nc3c(=O)n(CCN4CCCCC4)nc(C)c3c2C)cc1,-22.5%
12,OC1CCCN(Cc2ccccc2)C1 (centres unmarked),-4.02%
13,CN1CCN(c2ccccc2/C=N/NC(=O)c2cccnc2)CC1,4.8%
14,c1ccc(-c2nc(-c3cccnc3)cs2)cc1,-0.218%
15,O=C(Cc1ccccc1[N+](=O)[O-])NCc1ccc(Cl)cc1,5.25%
16,CC1Cn2c(nnc2-c2cccc(N)c2)S1 (centres unmarked),9.25%
17,COc1ccc(C(=O)N=C2SC3CS(=O)(=O)CC3N2Cc2ccccc2)cc1OC (centres unmarked),13.3%
18,CSCCC(NC(=O)c1ccc(Br)cc1)C(=O)O (centres unmarked),13.7%
19,Cc1ccc(NC(=S)NNC(=O)c2c([N+](=O)[O-])c(C)nn2C)cc1,7.99%
20,COc1cc(C(=O)Nc2cc(C)ccn2)cc(OC)c1OC,14.5%
21,COC(=O)Cc1c[nH]c2cccc(OCC(O)CN(Cc3ccccc3)C(C)C)c12.O=C(O)c1ccccc1O (centres unmarked),-63%
22,Cc1ccc(CNCc2ccc3c(c2)OCO3)c(C)c1.O=C(O)C(=O)O,-15.8%

row,Compound,"hERG current change (%, negative = inhibition) at 10uM"
1,c1cc2c(cc1CN1CCNCC1)OCO2,10.8%
2,CN1CCCC1CCNC1C2CC3CC(C2)CC1C3 (centres unmarked),-2.88%
3,COc1ccc(C(=O)C2CCN(CC(=O)NCc3ccccc3)CC2)cc1,-46.3%
4,COc1ccccc1C(=O)NC(=O)COC(=O)Cc1ccccc1[N+](=O)[O-],8.83%
5,O=C(c1ccc(NC2=NC3CS(=O)(=O)CC3S2)cc1)N1CCN(c2ccccc2)CC1 (centres unmarked),20.7%
6,CCCCn1cc(S(=O)(=O)c2ccccc2)c(=O)c2cc(C)ccc21,-28.9%
7,COC(=O)COc1ccccc1C(N)=O,8.81%
8,O=c1c2ccccc2nc(SCc2nc(-c3ccccc3)no2)n1-c1ccc(F)cc1,9.12%
9,O=C(/C=C/c1ccccc1)c1ccc(NC2=NCCCS2)cc1,-6.63%
10,COc1ccc(NC(=O)CSc2nccc(C)n2)cc1,11.9%
11,CCCN(C(=O)c1cccc(-n2cccc2)c1)c1c(N)n(Cc2ccccc2)c(=O)[nH]c1=O,13.6%
12,O=C(CC(C(=O)O)P(=O)(c1ccccc1)c1ccccc1)c1ccc(Br)cc1 (centres unmarked),5.9%
13,COc1ccc(/C=N/N=C2/NC(=O)C(CC(=O)NC(N)=O)S2)cc1 (centres unmarked),5.13%
14,CCN(CC)C(=O)c1cn(C)c(=O)c2cc(OC)c(OC)cc12,16.1%
15,CCN1C(=O)[C@H]2[C@@H](c3ccc(SC4CCCCC4)c(OC)c3)N[C@@](Cc3ccccc3)(C(=O)OC)[C@H]2C1=O.O=C(O)C(F)(F)F,-3.49%
16,CN1CCC(N2CCCC(C(=O)O)C2)CC1.Cl (centres unmarked),6.26%
17,O=C(N/N=C/c1ccc(Br)o1)c1cccnc1,2.33%
18,O=C(/C=C/c1ccc2c(c1)OCO2)N1CCCCC1,10.6%
19,Fc1ccc(-c2ncc3ccccn23)cc1,16.4%
20,CN(CC(=O)Nc1cccc(Cl)c1)S(=O)(=O)c1ccc2c(c1)n(C)c(=O)c(=O)n2C,9.5%
21,Cc1ccc(/C=C/C(=O)NCc2ccco2)o1,2.73%
22,Cc1nc2ccccn2c(=O)c1NC(=O)c1cccs1,-1.25%
